# Measurements taken from PMC4336329 (PLoS ONE, 2015).
# The whole screen tested about 310,000 compounds, of which about 14,000 (4.5%) showed an effect of 50% or more. The effect is printed as a negative number. This is one part of the list.
# Target: human ether-à-go-go-related gene (hERG) potassium channel (human, UniProt Q12809)
# Test: primary screen, population patch clamp on CHO cells stably expressing hERG
# 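Note: peak tail current of the secondary pulse compared with the same well before compound.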
# Sequence of human ether-à-go-go-related gene (hERG) potassium channel (Q12809 whole entry, looked up): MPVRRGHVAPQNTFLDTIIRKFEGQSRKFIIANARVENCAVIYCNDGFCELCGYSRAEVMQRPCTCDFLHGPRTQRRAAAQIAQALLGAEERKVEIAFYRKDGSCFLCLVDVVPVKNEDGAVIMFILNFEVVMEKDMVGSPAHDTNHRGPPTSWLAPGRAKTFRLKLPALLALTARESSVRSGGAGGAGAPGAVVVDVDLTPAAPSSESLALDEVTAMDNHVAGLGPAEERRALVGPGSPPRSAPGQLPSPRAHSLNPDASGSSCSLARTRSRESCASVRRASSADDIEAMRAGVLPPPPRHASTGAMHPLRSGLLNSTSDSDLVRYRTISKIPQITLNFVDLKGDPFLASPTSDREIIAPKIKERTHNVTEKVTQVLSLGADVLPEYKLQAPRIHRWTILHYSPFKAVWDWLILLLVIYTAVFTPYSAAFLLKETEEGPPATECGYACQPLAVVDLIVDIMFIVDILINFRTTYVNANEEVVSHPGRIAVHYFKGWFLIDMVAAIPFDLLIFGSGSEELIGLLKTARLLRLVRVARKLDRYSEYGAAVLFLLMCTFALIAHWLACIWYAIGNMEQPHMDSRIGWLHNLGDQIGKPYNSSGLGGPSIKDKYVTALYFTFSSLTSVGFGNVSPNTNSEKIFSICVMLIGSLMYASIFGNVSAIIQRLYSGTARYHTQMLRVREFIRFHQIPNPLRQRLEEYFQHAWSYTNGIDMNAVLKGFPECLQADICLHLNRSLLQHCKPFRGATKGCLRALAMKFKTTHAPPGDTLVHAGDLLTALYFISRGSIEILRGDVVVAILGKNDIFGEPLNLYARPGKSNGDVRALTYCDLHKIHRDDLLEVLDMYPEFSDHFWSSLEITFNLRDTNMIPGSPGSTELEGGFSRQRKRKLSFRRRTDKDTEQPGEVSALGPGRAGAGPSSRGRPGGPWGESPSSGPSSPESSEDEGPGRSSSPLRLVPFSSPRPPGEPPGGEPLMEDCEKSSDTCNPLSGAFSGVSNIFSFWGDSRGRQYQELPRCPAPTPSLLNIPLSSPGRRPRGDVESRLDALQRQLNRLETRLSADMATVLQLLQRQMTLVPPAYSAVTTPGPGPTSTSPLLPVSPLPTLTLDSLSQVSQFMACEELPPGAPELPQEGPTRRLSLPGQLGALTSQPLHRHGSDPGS
row,Structure (SMILES),"hERG current change (%, negative = inhibition) at 10uM [%]"
1,CC(=O)Nc1cccc(NC(=O)CCN2C(=O)c3ccccc3S2(=O)=O)c1,-4.59
2,CCc1nnc(NC(=O)COC(=O)CN2C(=O)c3ccccc3C2=O)s1,1.09
3,CC(C)n1nnnc1SCC(=O)N1CCOCC1,20.6
4,Nc1nccnc1C(=O)OCc1nc2sc3c(c2c(=O)[nH]1)CCCC3,-22.8
5,COC(=O)CCCC1=CC2=CC(=O)C(C)(OC(=O)c3cccs3)C(=O)C2=CN1CCc1c[nH]c2ccccc12 (centres unmarked),15
6,CC(=O)Nc1ccc(NC(=O)CSc2nnnn2-c2ccccc2F)cc1,6.4
7,Cc1cccc(NC(=O)CCn2nc(C)cc2C)c1,9.02
8,Cc1ccc(C(=O)OC(C)C(=O)NC(C)CCc2ccccc2)o1 (centres unmarked),0.142
9,CCOC(=O)C1CCCN(S(=O)(=O)c2c(C)c(C)cc(C)c2C)C1 (centres unmarked),-13.9
10,CCc1ccc(N2CC(C(=O)NC3CCCCC3C)CC2=O)cc1 (centres unmarked),15.6
11,CCOC(=O)C(C)Sc1ncc(OC)c(=O)[nH]1 (centres unmarked),16.6
12,O=c1nc(-c2ccccc2)c2cc(Cl)ccc2[nH]1,-16.8
13,Cc1ccccc1Nc1ncc(C#N)c(N)n1,17.1
14,COc1ccc(NC(=S)N2CCC(NC(=O)c3ccc(OC)cc3)CC2)cc1,9.06
15,Cn1cccc1-c1nc2ccccc2n1Cc1ccccc1,-29.1
16,COc1cc(SC)ccc1C(=O)NCC1CCCO1 (centres unmarked),-0.204
17,CCOC(=O)c1c(NC(=O)CSc2ncnc3[nH]ncc23)sc2c1CCC(C)C2 (centres unmarked),8.93
18,CCc1ccc(CC(=S)N2CCOCC2)cc1,16.7
19,Cc1ccc(NCC(=O)NNC2=NCCC2)c(C)c1,31
20,CCOC(=O)N1CCN(C(=O)c2cnn3c(C(F)(F)F)cc(-c4cccs4)nc23)CC1,-7.69
21,CCOC(=O)c1cnn(-c2nc3c(C)cccc3s2)c1C,11.9
22,COc1cccc(C(CC(=O)O)NS(=O)(=O)c2ccc3c(c2)N(C(C)=O)CC(C)O3)c1 (centres unmarked),24.4
23,COC(=O)c1c(-c2cccc(C)c2)csc1NC(=O)C1CCCO1 (centres unmarked),-5.91
24,CCc1ccc(N2CC(C(=O)OCC(=O)c3c(N)n(CC(C)C)c(=O)n(C)c3=O)CC2=O)cc1 (centres unmarked),-7.72
25,C/C(=N/NC(=O)CN1CCN(Cc2ccccc2Cl)CC1)c1cccs1,-17.8
26,N#Cc1c(N)nc2c(c1-c1ccccc1)CCC2,1.35
